± gives the uncertainty stated by the source. Whole data set: some 9,900 compounds, median “viability index relative to DMSO control” near 1, cut for the lowest 2% near 0.85. The list shows a part of the results.
Tested on: Plasmodium falciparum NF54 stage V gametocytes
Assay: viability index relative to DMSO control (fraction); higher = less gametocyte killing
Settings: 2.5 µM, incubation time: 72 h
Method in brief: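 P. falciparum NF54 stage V gametocytes in serum-free screening medium (0.75% gametocytemia, 1.25% hematocrit, 10 µl) were incubated with compound at 2.5 µM in 1,536-well plates for 72 hr at 37°C under low oxygen. Then 3 µl of 2.5 µM MitoTracker Red CMXRos plus 0.13% saponin was added for one to two hours. One field per well was imaged, 20–70 µm2 red particles were counted, and the viability index was the count divided by the plate mean of DMSO wells.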

[1] = library set: Broad Institute Blood Stage
[2] = library set: Broad Institute DOS

Compound	viability index [1]	viability index [2]
C[C@@H]1CN([C@@H](C)CO)C(=O)c2cccc(NC(=O)C3CC3)c2O[C@@H]1CN(C)C(=O)Nc1ccc(C(F)(F)F)cc1	0.594 ± 0.06	–
Cc1noc(C)c1S(=O)(=O)Nc1ccc2c(c1)C(=O)N([C@H](C)CO)C[C@H](C)[C@@H](CN(C)Cc1ccc(C(=O)O)cc1)OCCCC[C@@H](C)O2	–	0.909 ± 0.28
CCC(=O)Nc1ccc2c(c1)OC[C@@H](C)N(Cc1ccccc1)C[C@H](C)[C@@H](OC)CN(C)C2=O	–	0.96 ± 0.0082
COc1cccc(NC(=O)N[C@@H]2C=C[C@@H](CC(=O)NCc3ccncn3)O[C@@H]2CO)c1	–	1.09 ± 0.068
OC[C@H]1[C@@H](c2ccc(C#Cc3ccccc3F)cc2)[C@@H]2CN(CC3CCOCC3)CCCCN12	–	0.9107 ± 0.0029
COc1ccc(S(=O)(=O)N(C)C[C@@H]2Oc3c(cccc3N(C)C)C(=O)N([C@@H](C)CO)C[C@@H]2C)cc1	–	1.04 ± 0.083
C/C=C/c1ccc2n(c1=O)C[C@H]1[C@H](CO)[C@@H](C(=O)NCCc3cn(C)cn3)[C@@H]2N1C(=O)C1CCC1.C/C=C\c1ccc2n(c1=O)C[C@H]1[C@H](CO)[C@@H](C(=O)NCCc3cn(C)cn3)[C@@H]2N1C(=O)C1CCC1	–	1.08 ± 0.032
O=S(=O)(c1ccc(F)cc1)N1CCCCN2[C@@H](CO)[C@@H](c3ccc(-c4cncnc4)cc3)[C@@H]2C1	–	1.06 ± 0.079
CCCNC(=O)N1[C@@H]2CN(C(=O)c3ccncc3)c3ccccc3[C@@H]2[C@@H]1CO	–	1.05 ± 0.054
O=C(NCC[C@@H]1CC[C@@H](NC(=O)c2ccccc2F)[C@H](CO)O1)c1cnccn1	–	1.01 ± 0.047
O=C(c1cccnc1)N1CC(=O)N2[C@@H](CO)[C@@H](c3ccc(-c4ccccc4F)cc3)[C@@H]2C1	–	1.13 ± 0.032
C[C@H]1CN([C@@H](C)CO)C(=O)c2c(c3ccccc3n2C)-c2ccccc2CO[C@@H]1CN(C)C(=O)[C@H](Cc1ccccc1)N(C)C	–	1.02 ± 0.038
OC[C@H]1[C@@H](c2ccccc2)C2(CN(Cc3cccnc3)C2)N1Cc1ccncc1	–	1.12 ± 0.034
C[C@@H]1C/C=C/C[C@@H](c2ccc3c(c2)OCO3)NC(=O)[C@@H](C)N(C)C(=O)c2ccccc2O1.C[C@@H]1C/C=C\C[C@@H](c2ccc3c(c2)OCO3)NC(=O)[C@@H](C)N(C)C(=O)c2ccccc2O1	–	1.02 ± 0.023
C[C@@H]1CCCCO[C@@H](CN(C)Cc2ccc(C(F)(F)F)cc2)[C@@H](C)CN([C@H](C)CO)C(=O)c2cc(NC(=O)Nc3cccc4ccccc34)ccc2O1	–	1.07 ± 0.06
COc1ccccc1NC(=O)N1C[C@H]2[C@@H](c3ccccc31)[C@@H](CO)N2C(=O)C1CCCC1	–	1.02 ± 0.069
Cc1ccccc1S(=O)(=O)N1CCCCN2[C@H](C1)[C@@H](c1ccc(C#CCN(C)C)cc1)[C@@H]2CO	–	1.023 ± 0.0063
Cc1noc(C)c1NC(=O)Nc1ccc2c(c1)CC(=O)N([C@H](C)CO)C[C@H](C)[C@@H](CN(C)Cc1ccc(C(F)(F)F)cc1)O2	–	0.9165 ± 0.004
CN1C(=O)c2cc(NC(=O)c3ccc(F)c(F)c3)ccc2OC[C@H]2O[C@H](CC(=O)N3CCCCC3)CC[C@@H]21	–	1 ± 0.018
Cc1noc(C)c1S(=O)(=O)Nc1cccc2c1O[C@@H](CN(C)Cc1ccc(C(F)(F)F)cc1)[C@@H](C)CN([C@H](C)CO)C2=O	–	1.04 ± 0.033
O=C(Nc1cc(F)ccc1F)N[C@@H]1CC[C@H](CCn2cc(C3CCCCC3)nn2)O[C@H]1CO	–	1.08 ± 0.071
COc1ccc2c3c([nH]c2c1)[C@H](CO)N(C[C@]31CN(CC2CC2)C1)C(=O)Nc1cccc(F)c1	–	0.933 ± 0.08
CCC(=O)N1CC(=O)N2[C@H](C1)[C@H](c1ccc(-c3ccc(C#N)cc3)cc1)[C@@H]2CO	–	1.02 ± 0.044

Compound	viability index [1]	viability index [2]
COc1ccccc1NC(=O)N1C[C@@H](O)COC[C@@H]2O[C@@H](CC(=O)N3CCC(Cc4ccccc4)CC3)CC[C@H]21	–	0.973 ± 0.053
O=C(c1ccccn1)N1C[C@H]2[C@@H](c3ccccc31)[C@H](CO)N2C(=O)Nc1ccccc1Cl	–	1.01 ± 0.037
CC(C)C#Cc1ccc([C@@H]2[C@H](CO)N3C(=O)CN(C(=O)NC4CCCC4)C[C@@H]23)cc1	–	1.01 ± 0.023
Cc1cc(C(=O)Nc2ccc3c(c2)C(=O)N(C)[C@@H]2CC[C@H](CC(=O)O)O[C@@H]2CO3)no1	–	0.861 ± 0.044
CCS(=O)(=O)N1CCCCN2[C@H](CO)[C@@H](c3ccc(-c4ccc(C(=O)N(C)C)cc4)cc3)[C@H]2C1	–	1.11 ± 0.14
O=C1CN(S(=O)(=O)Cc2ccccc2)C[C@H]2[C@@H](c3ccc(C#Cc4ccccc4)cc3)[C@H](CO)N12	–	1.03 ± 0.046
O=C([C@H]1[C@H](CO)[C@H]2Cn3c(cccc3=O)[C@@H]1N2S(=O)(=O)c1ccccc1F)N1CCCCC1	–	1.13 ± 0.045
O=C(C[C@@H]1C=C[C@H](NC(=O)c2ccc3c(c2)OCO3)[C@H](CO)O1)NC1Cc2ccccc2C1	–	0.985 ± 0.063
CS(=O)(=O)N1[C@H](CO)[C@@H](c2ccc(-c3ccccc3F)cc2)[C@@H]1C#N	–	1.16 ± 0.027
O=C(C1CCC1)N1CCCCN2[C@@H](CO)[C@@H](c3ccc(-c4ccncc4)cc3)[C@@H]2C1	–	1.097 ± 0.0087
O=C(CN1CCOCC1)N[C@@H]1CC[C@H](CCn2cc(C3CC3)nn2)O[C@@H]1CO	–	1.17 ± 0.041
C[C@H](CO)N1C[C@H](C)[C@@H](CN(C)C(=O)Nc2cccc(F)c2)Oc2cc(C#CC3(O)CCCC3)ccc2S1(=O)=O	–	1.08 ± 0.013
O=C(C1CCOCC1)N1CC(=O)N2[C@H](CO)[C@H](c3ccc(C#CC4CCCCC4)cc3)[C@@H]2C1	–	1.06 ± 0.036
O=C(C[C@H]1C=C[C@H](NS(=O)(=O)c2ccccc2)[C@@H](CO)O1)NCCN1CCCCC1	–	1.03 ± 0.054
C[C@H](CO)N1C[C@H](C)[C@H](CN(C)S(=O)(=O)c2cccc(C#N)c2)OCc2ccccc2-c2ccccc2C1=O	–	0.965 ± 0.052
CC(=O)N1C[C@H]2[C@@H](c3ccccc31)[C@@H](CO)N2Cc1ccc(Cl)cc1	–	0.97 ± 0.12
CCS(=O)(=O)Nc1ccc2c(c1)C(=O)N(C)[C@H]1CC[C@H](CC(=O)NC3CCCCC3)O[C@H]1CO2	–	1.062 ± 0.0022
N#C[C@H]1[C@@H](c2ccccc2C2=CCCCC2)[C@@H](CO)N1C(=O)c1ccccn1	–	1.12 ± 0.11
CO[C@@H](CN(C)CC1CCOCC1)[C@@H](C)CN(C(=O)Nc1ccc(F)cc1)[C@H](C)CO	–	1.04 ± 0.013
COc1ccc2c3c([nH]c2c1)[C@@H](CO)N(C[C@]31CCN(CC1)C(=O)Cc1ccncc1)C(=O)Nc1ccc(F)cc1	–	0.9669 ± 0.006
C[C@@H]1CN([C@@H](C)CO)C(=O)c2cc(NS(=O)(=O)c3cccs3)ccc2O[C@@H](C)CCCCO[C@@H]1CN(C)C(=O)c1ccncc1	–	1.13 ± 0.027
C[C@@H]1CN([C@@H](C)CO)C(=O)CCCn2cc(nn2)CO[C@@H]1CN(C)S(=O)(=O)c1cccc(C#N)c1	–	1.06 ± 0.048
O=C(Nc1cccc(F)c1)N1C[C@H]2[C@@H](c3ccccc31)[C@@H](CO)N2C(=O)Cc1ccccn1	–	1.05 ± 0.094

Compound	viability index [1]	viability index [2]
CN1C(=O)c2cc(NS(C)(=O)=O)ccc2OC[C@H]2O[C@@H](CC(=O)NCc3ccccc3)CC[C@H]21	–	1.049 ± 0.0094
O=C(CC1CC1)N1CC(=O)N2[C@H](C1)[C@@H](c1ccc(C#Cc3cccc(F)c3)cc1)[C@@H]2CO	–	0.964 ± 0.054
CN1C(=O)c2cc(NC(=O)Cc3cccs3)ccc2OC[C@@H]2O[C@H](CC(=O)NCc3ccc(-c4ccccc4)cc3)CC[C@H]21	–	1.01 ± 0.14
C[C@H]1CN([C@@H](C)CO)C(=O)c2cc(NC(=O)CCCN(C)C)ccc2O[C@H]1CN(C)Cc1ccc(Cl)c(Cl)c1	–	1.023 ± 0.0079
CC(C)(C)S(=O)N1Cc2cc(C(=O)N3CCN(Cc4ccccc4)CC3)nc(-c3cccc(-c4cc5ccccc5o4)c3)c2[C@H]1CCO (some centres undefined)	–	0.7362 ± 0.0068
CCNC(=O)C[C@@H]1CC[C@@H]2[C@H](COC[C@H](O)CN2C(=O)c2ccccn2)O1	–	1.05 ± 0.038
CN(C)CC(=O)N1[C@@H](CO)[C@@H](c2ccccc2)C12CN(C(=O)c1ccc(F)cc1)C2	–	1.12 ± 0.012
CO[C@@H]1CN(C)C(=O)c2ccc(NC(=O)c3cccc(F)c3)cc2OC[C@H](C)NC[C@@H]1C	–	1.13 ± 0.05
CCCNC(=O)N1C[C@@H]2[C@H](c3ccccc31)[C@H](CO)N2C(=O)Nc1ccccc1F	–	1.1 ± 0.04
CO[C@@H](CN(C)S(=O)(=O)c1ccc(C)cc1)[C@H](C)CN(C(=O)Nc1ccccc1F)[C@@H](C)CO	–	0.961 ± 0.013
COc1ccccc1NC(=O)N1C[C@H]2[C@@H](c3ccccc31)[C@H](CO)N2Cc1ccc2c(c1)OCO2	–	1.01 ± 0.029
COc1cccc(S(=O)(=O)N[C@@H]2CC[C@H](CC(=O)NC3Cc4ccccc4C3)O[C@@H]2CO)c1	–	0.943 ± 0.055
CCCNC(=O)N1[C@H](C#N)[C@H](c2ccc(-c3cccc(OC)c3)cc2)[C@@H]1CO	0.866 ± 0.032	–
Cn1cnc(S(=O)(=O)N2[C@@H]3CNC[C@H]2[C@@H]3c2ccc(/C=C/c3ccccc3)cc2)c1	–	1.12 ± 0.063
O=C(C[C@@H]1CC[C@@H]2NC[C@H](O)COC[C@H]2O1)N1CCc2ccccc2C1	–	1.07 ± 0.15
O=C(Cc1ccccc1)N1CC[C@H]2[C@H](CO)Nc3ccc(C#Cc4cccc(F)c4)cc3[C@H]21	–	1.13 ± 0.028
CO[C@@H]1CN(C)C(=O)c2ccc(NC(=O)NC3CCCCC3)cc2OC[C@@H](C)NC[C@H]1C	–	1.01 ± 0.11
CS(=O)(=O)Nc1ccc2c(c1)[C@@H]1C[C@H](CC(=O)NCc3cc(F)ccc3F)O[C@H](CO)[C@@H]1O2	–	1.09 ± 0.08
C[C@H](NC(=O)C[C@@H]1C=C[C@H](NS(=O)(=O)c2cccc(F)c2)[C@H](CO)O1)c1ccccc1	–	1.08 ± 0.11
COc1ccc(C[C@H]2CCn3nncc3COCCCNC2=O)cc1	–	1.04 ± 0.017
CC(=O)N1[C@H](CN(CC(C)C)C(=O)c2ccccn2)[C@@H](c2ccccc2)[C@@H]1CO	–	1.09 ± 0.021
COC(=O)C[C@@H]1CC[C@@H]2[C@H](COc3ccc(NC(=O)c4ccc(C(F)(F)F)cc4)cc3C(=O)N2C)O1	–	1.02 ± 0.021
O=C(C[C@@H]1CC[C@H](NC(=O)c2ccc(F)cc2)[C@H](CO)O1)NCCc1ccccc1	–	1.1 ± 0.14

— the supplement of paper PMC4723716
